The full ranking holds about 16,000 sequences; the median of “Z-score” is about -0.37, and the highest 2% start at about 3.1. The list shows a part of the results.
tested on: RBM10 RRM1-ZnF-RRM2 (GST-tagged construct); assay: RNAcompete 7-mer binding Z-score; higher = stronger binding preference
Experimental: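 RNAcompete: 20 pmol GST-tagged RBM10 RNA-binding constructs were incubated with a designed RNA pool of about 241,000 sequences up to 41 nt (1.5 nmol) on glutathione beads for 30 min at 4 °C and washed. Bound RNAs were identified by microarray hybridisation. Each RNA 7-mer is scored by a one-sided Z-score of its enrichment, computed over probes that contain the 7-mer within longer pool sequences.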

Sequence | RNAcompete 7-mer binding Z-score
CCUUAUU | -0.879
UGCCGUG | -0.00512
UUCCCCC | -0.511
ACGCCGG | -0.395
CUGAUCG | -0.734
AGACAGG | 1.72
UAGUGAC | 0.21
UGCUGCU | -0.566
GAUAUGC | -0.078
AAUUCCC | -0.85
UUAAUUA | -0.61
UAUCACA | -0.373
UCGUUGA | -0.519
CGCGCGC | -0.562
CGAACGA | -0.0561
CUCGGGA | 0.228
GUGACGA | 0.68
GUAAAGA | 0.545
UAGUGGU | 1.27
UACGCCA | -0.602
GCGACCA | -0.0379
GUUCCAU | -0.712
CACUACA | -0.504
AUGGAGA | 2.59
UCGAGAC | -0.417

Sequence | RNAcompete 7-mer binding Z-score
UCGAUAG | 0.0058
GGGGAAA | 3.02
ACUCUUA | -0.981
GACCGUA | -0.635
UCCAGAG | -0.213
AUGGAAA | 2.62
UCAGUCU | -0.646
AACGCCC | -0.777
CCUUAGC | -0.817
GCGGUUG | 1.02
GUCGGUU | 0.199
CAUUCAC | -0.723
CUUGAUG | -0.664
GUAAGAG | 1.18
UGAGGUA | 1.87
UUGAGUC | -0.435
UUUGUCU | -0.653
CACCCUC | -0.763
UGCGGCU | -0.169
UGUAGUA | 0.155
ACAUAUA | -0.744
AUUACUC | -0.65
CGCUGUG | -0.322
CAGUGGA | 1.75
UCGACGA | -0.275

Sequence | RNAcompete 7-mer binding Z-score
ACUUGAC | -0.836
GAUACGG | 1.97
CUCCCAG | -0.683
GGGCCGA | 0.84
CGUUUAU | -0.712
GUAAGUC | -0.0743
AACUUAA | -0.628
UACCCGA | -0.65
GUCUGAC | -0.562
UCUCGAC | -0.799
CGGAAAC | 0.111
GAGUGCU | -0.125
GAAACCU | -0.661
AAGGGAU | 3.44
CAACUUC | -0.879
GCAGAAU | 0.468
AAAUCCA | -0.46
AUCUGAC | -0.734
GUCCACA | -0.406
CAGGUUC | -0.0707
AUUAUUU | -0.639
CUUAAAG | -0.723
UUUGUAC | -0.686
UCGCUGG | 0.075
CGGUGUA | 0.873

Sequence | RNAcompete 7-mer binding Z-score
CGCACCG | -0.417
ACAGCCA | -0.555
ACUGGAU | 0.527
AUACCAG | 0.075
CUCCCCG | -0.737
CUCGUCG | -0.5
AAGCGGC | 0.217
UGUGGUA | 0.833
GCAGUAC | 0.0604
UCGAUGA | -0.278
CACCUCU | -0.854
GUGUAUA | 0.614
AAGGUUU | 2.37
AUACCAC | -0.46
UGUGUAC | -0.315
CUCUCUU | -0.857
AACGAUU | -0.355
AGGACUA | -0.078
UGGCGCC | -0.264
CACCAUA | -0.632
GCUAGAG | 0.37
ACCGGGU | 1.28
UAAAAAG | 0.137
UUAGGCU | 0.0532
UGUAUAG | 0.297

Sequence | RNAcompete 7-mer binding Z-score
CAACUCG | -0.766
GUCCGUC | -0.362
AGCGCUC | -0.522
UCUCAGC | -0.744
AUCCCAG | -0.435
AUACUUG | -0.61
GAAUCAC | -0.129
UUAAAUG | -0.486
GUAGCUA | -0.216
CUGACUG | -0.581
CACGAAG | 0.0495
GCCGACC | -0.679
UACUUUC | -0.894
CAUGUGG | 0.84
UCGACGU | -0.5
UGGGUGG | 4
AAGGUCU | -0.103
CGAUGCA | -0.0998
AUGCCCU | -0.839
UAACGUA | -0.107
CUCACUU | -0.97
AGCACGC | -0.358
UUUGGAC | -0.246
UUAUUAC | -0.697
UUGACGU | -0.479

Sequence | RNAcompete 7-mer binding Z-score
GCCCGAC | -0.843
CAGCUGC | -0.548
CCAUCCC | -0.759
AGCCGCG | -0.388
CCAACCU | -0.85
UUUGGGU | 2.13
GUCAAGG | 1.38
GGUCCAG | 0.199
CAGACCG | -0.497
UUUCACG | -0.715
GUACUCU | -0.672
GUUUGAC | -0.373
AACUUUU | -0.752
ACAGCUG | -0.0707
GUCUCCA | -0.65
UGCAAGC | -0.573
CUUUGCG | -0.894
CAUGAGG | 1.35
UAACUCG | -0.533
CUGCUGA | -0.639
CAACGGA | 0.913
ACCGACU | -0.697
ACACACG | -0.0962
UGCCCCU | -0.471
GACAUGA | 0.301

Sequence | RNAcompete 7-mer binding Z-score
UACCACC | -0.526
CUCUUAA | -0.759
CCCGUAU | -0.752
CGAGCCU | -0.723
GACCCGC | -0.89
CCGUAUU | -0.737
GAUUAUA | -0.0998
CCGUGUU | -0.606
CAAGUGC | -0.289
CUCGGAC | -0.453
GGCUUGU | -0.318
GACAAAG | 1.01
GCUCCUG | -0.704
AAGUGCA | 0.235
UAACCCG | -0.668
UGGAACU | 0.279
CACUCUU | -0.876
UCCAGGG | 0.851
GUGAGCA | 0.676
UAAGGGA | 3.09
CUAGCAU | -0.624
CAUUAGA | -0.526
UUACACU | -0.526
UGAAGAG | 0.869
UGGGAAA | 2.49

Sequence | RNAcompete 7-mer binding Z-score
GCCACGG | 0.479
CGAGCUG | -0.184
ACACGUG | -0.107
CUUAAUA | -0.763
UGCCUGG | -0.457
ACGCUCC | -0.697
UCGUUUC | -0.675
UUUGAGC | -0.566
CCGCCGG | -0.46
CCGACAG | -0.453
UCAGGGG | 1.46
AACCCAG | -0.409
GUGCACU | -0.18
AGUUUCC | -0.635
GCGAAAC | 0.0786
UCGGCCG | -0.795
UUUCCCG | -0.766
CUAAGAA | -0.486
CUAUGAA | -0.457
CGCAUUU | -1.01
AUGGUAA | 1.97
CCCGAGU | -0.555
CCGAUCA | -0.715
CUUGCUA | -0.73
CUCUGUU | -0.956

Sequence | RNAcompete 7-mer binding Z-score
AUUAAAG | 0.13
UGCAUUC | -0.755
AUAAUUA | -0.398
CAUCCCC | -0.657
GCAGAUG | 0.949
UCGAGCA | -0.125
ACUUUUC | -0.726
CAAGGAU | 1.42
CCACGGC | -0.388
AGUAGGC | 1.52
UAGAUUC | -0.344
UAAACCC | -0.675
AGAUCGA | -0.202
UCGGGCC | -0.358
GCUGGCC | -0.497
GAACAGA | 0.745
GUGUUAC | -0.202
AGAGCAU | -0.471
GCCUGUU | -0.759
UCCUAAU | -0.755
AAAUAUG | 0.024
UCAGGGA | 2.05
UAGAUGG | 2.16
AUUUGAC | -0.599
UAGUCUC | -0.581

Sequence | RNAcompete 7-mer binding Z-score
AUCGUUU | -0.668
AUGGCUA | 0.406
UGAACCU | -0.683
GCGGUGG | 3.01
AAUUAAU | -0.49
AACGCCA | -0.533
CGUGAAU | -0.289
UCCAAAC | -0.643
GGCAGGC | 1.52
CUGCCAA | -0.843
GAUACAA | 0.294
ACUUUCA | -0.828
CCUUGGU | -0.369
AUUCAAG | -0.158
GAGCGGU | 1.51
AAUGAGU | 0.457
CGGCUAG | -0.0415
CCCUGCG | -0.413
CGCUCGU | -0.46
AAACUAU | -0.541
GCAAGCC | -0.617
CUGGACG | 0.352
UGGAGAA | 1.73
UCUCUUC | -0.759
GAUUGGG | 3.64

Sequence | RNAcompete 7-mer binding Z-score
GCAAUAU | -0.187
ACACCCG | -0.566
CACAUCU | -0.825
ACAACGC | -0.686
CCGAGCG | -0.00877
CGGUUCG | -0.133
CAGGUAA | 1.39
GGGAACA | 3.06
GGUUACG | 1.35
GUGGUCG | 1.63
UUCACCU | -0.825
CCUGUAC | -0.774
AAUCCAU | -0.522
ACAGCGA | 0.37
UUUAAGG | 0.315
AUACGGU | 0.902
CGAGUAG | 0.315
AGUUGUG | 0.202
CGUGUCA | -0.486
GCAAAAA | -0.0306
UAUCCGG | -0.413
UGCAAUC | -0.526
GUGAGCC | 0.159
UCCGAUA | -0.628
UCAAUAU | -0.391

Sequence | RNAcompete 7-mer binding Z-score
UGCGAUG | -0.0197
UAUUGGC | -0.18
AUGGAAU | 1.75
GUAAGGU | 2.57
AUCCGAG | -0.402
GGUAUGG | 4.03
GCAAGAG | 0.789
CAGACGU | -0.0452
CUGUUGA | -0.661
GCAACAA | 0.0422
ACGGAUU | 0.829
UAGCCUC | -0.744
UCAAUAC | -0.249
CAUAUUG | -0.366
ACACGCG | -0.264
UACGUCC | -0.635
UCACACG | -0.377
AAAUAGU | -0.202
GUGCCCA | -0.675
AGGACAA | 1.29
AUAUCUA | -0.464
CCUGUAA | -0.777
CUUUAAA | -0.876
UCCUUUU | -0.883
GGUGUCG | 1.21

Sequence | RNAcompete 7-mer binding Z-score
AAUCGUC | -0.639
GGGUUGC | 1.92
AUGUCCA | -0.741
CUAUUUC | -0.912
ACGUUGU | -0.22
UAUAGGC | 0.0969
CAAGAGA | -0.0816
GGGCUUU | 0.315
CCAGACU | -0.799
GUACGUU | -0.224
UGCGGUG | 1.37
UGAGUUU | -0.078
ACUUCAA | -0.595
GACGGGU | 2.37
UAAGUAA | 0.0859
ACACGAU | -0.424
UUACGAG | -0.191
UGUAGAG | 0.978
GCUACGC | -0.362
UAGAACA | 0.326
UACGUAU | -0.413
UUUCAUA | -0.686
CCGCCCU | -0.737
AUCAGAU | -0.0161
UAUGGGU | 2.81

Sequence | RNAcompete 7-mer binding Z-score
GGCCUUA | -0.307
AUUAAAU | -0.42
UGUCAAU | -0.497
GAACUAG | -0.0853
CAAAAGA | -0.158
UACUAAC | -0.526
UCAAGAC | -0.537
CGUACAG | -0.00148
GCCGUCA | -0.526
AAUAGUA | 0.261
CAGGUGG | 2.53
UCUAGUG | -0.322
CUCGGUG | 0.159
UCAACGU | -0.486
CAGCACU | -0.439
GACCGGC | -0.468
CUCCUUA | -0.817
UAUCCUC | -0.683
CGCGACU | -0.661
UAAUUUU | -0.89
GAAUGUG | 0.996
GUUCGUG | 0.199
CGGUGCG | 0.833
GGAUUAG | 2.29
GCUGCCA | -0.708

Sequence | RNAcompete 7-mer binding Z-score
CAAUCGU | -0.541
GUAAAGU | 0.396
UGCUGCG | -0.34
ACAGAAA | -0.0233
CCACCGU | -0.566
AAGGUCA | 1.15
UUGCCCG | -0.788
CCAGACG | -0.329
CCGGUCU | -0.701
GCGUGUA | 0.472
AGCGGAG | 2.29
CGUUAAC | -0.504
GGGGCAG | 3.07
CUUAUUC | -0.905
GCCGGCU | -0.694
CAGACCU | -0.803
UGAUUUU | -0.876

Source: the supplement of paper PMC5499739
